The results in this text go back to article PMC4336329 (PLoS ONE, 2015).

Each structure is given as a SMILES string. In all, about 310,000 compounds went through this assay and about 14,000 (4.5%) showed an effect of 50% or more. The effect is printed as a negative number. Some of the results follow.
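Note: peak tail current of the secondary pulse compared with the same well before compound.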

The target in the test is human ether-à-go-go-related gene (hERG) potassium channel (human, UniProt Q12809). Kind of test: primary screen, population patch clamp on CHO cells stably expressing hERG.
human ether-à-go-go-related gene (hERG) potassium channel, sequence (Q12809 whole entry, looked up): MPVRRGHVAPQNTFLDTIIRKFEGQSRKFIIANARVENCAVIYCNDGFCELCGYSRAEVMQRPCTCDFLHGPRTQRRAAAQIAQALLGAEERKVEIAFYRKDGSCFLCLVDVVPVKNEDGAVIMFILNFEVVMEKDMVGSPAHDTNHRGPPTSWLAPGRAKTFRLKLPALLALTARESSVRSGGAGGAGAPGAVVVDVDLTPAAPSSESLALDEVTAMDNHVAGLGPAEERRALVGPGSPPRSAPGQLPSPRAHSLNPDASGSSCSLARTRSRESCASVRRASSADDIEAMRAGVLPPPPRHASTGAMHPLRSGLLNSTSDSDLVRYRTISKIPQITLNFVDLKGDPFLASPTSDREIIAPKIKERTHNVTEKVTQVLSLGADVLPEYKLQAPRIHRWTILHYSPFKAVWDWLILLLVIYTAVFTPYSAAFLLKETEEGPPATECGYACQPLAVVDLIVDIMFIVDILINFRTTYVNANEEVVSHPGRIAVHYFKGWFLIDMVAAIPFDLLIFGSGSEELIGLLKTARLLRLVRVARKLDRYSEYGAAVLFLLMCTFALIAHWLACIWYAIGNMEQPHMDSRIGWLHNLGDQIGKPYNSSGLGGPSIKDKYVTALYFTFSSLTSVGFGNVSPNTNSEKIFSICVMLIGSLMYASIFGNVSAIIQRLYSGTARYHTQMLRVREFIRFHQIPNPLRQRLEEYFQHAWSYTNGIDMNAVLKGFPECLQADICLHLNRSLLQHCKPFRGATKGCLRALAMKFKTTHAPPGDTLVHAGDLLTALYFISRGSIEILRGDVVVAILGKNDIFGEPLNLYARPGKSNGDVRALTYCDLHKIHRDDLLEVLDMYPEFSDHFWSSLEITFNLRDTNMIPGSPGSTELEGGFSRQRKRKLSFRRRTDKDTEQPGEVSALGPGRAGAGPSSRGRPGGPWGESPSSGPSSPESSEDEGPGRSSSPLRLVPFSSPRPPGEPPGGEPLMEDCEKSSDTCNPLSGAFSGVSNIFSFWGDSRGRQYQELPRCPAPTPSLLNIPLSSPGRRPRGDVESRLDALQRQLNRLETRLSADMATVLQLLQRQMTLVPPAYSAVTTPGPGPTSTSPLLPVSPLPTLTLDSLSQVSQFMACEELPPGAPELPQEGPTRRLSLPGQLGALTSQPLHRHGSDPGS
For `Cc1ccc(NC(=O)CNCc2ccccc2Cl)cc1S(=O)(=O)N(C)C.O=C(O)C(=O)O`, the “hERG current change (%, negative = inhibition) at 10uM” value is listed as -21.1%.
On to `O=C(O)c1ccccc1CSc1nc2ccccc2n1Cc1ccccc1C(=O)O`, for which the “hERG current change (%, negative = inhibition) at 10uM” value is 43.2%.
As to `CCOC(=O)Cc1csc(NC(=O)CN(C)S(=O)(=O)c2ccc3c(c2)CCC(=O)N3)n1`, the “hERG current change (%, negative = inhibition) at 10uM” value is -15.9%.
`Cc1nn(-c2ccccc2)nc1C(=O)Nc1nnc(C(F)(F)F)s1`: the “hERG current change (%, negative = inhibition) at 10uM” value stood at 4.23%.
`CC(CCCC(C)(C)O)CC1C2=C(CCCC2=O)OC2=C1C(=O)CCC2` (centres unmarked): the “hERG current change (%, negative = inhibition) at 10uM” value came out at 9.82%.
With `O=C(Nc1nonc1-c1ccc(Cl)cc1)c1ccco1`, the “hERG current change (%, negative = inhibition) at 10uM” value came to 2.62%.
In the case of `CN(C)c1ncc(CN2CCC(C(=O)Nc3ccc(-n4cccn4)cc3)CC2)s1`, the “hERG current change (%, negative = inhibition) at 10uM” value was -10.7%.
For `CCNS(=O)(=O)c1ccc(CCC(=O)O)cc1`, the “hERG current change (%, negative = inhibition) at 10uM” value came out at 23.6%.
Consider `CCOc1ccc(C(C)=O)cc1CSc1nc(C)cc(C)n1`, for which the “hERG current change (%, negative = inhibition) at 10uM” value was -6.21%.
Regarding `Cc1cccc(CSCCNC(=O)CCSc2ccccc2)c1`, the “hERG current change (%, negative = inhibition) at 10uM” value is listed as -21.4%.
Under `S=C(NNC(=S)NC1CC2C=CC1C2)NC1CC2C=CC1C2` (centres unmarked) stands 11.2%; under `Cc1cc(C)c(NC(=O)CNC(=O)c2ccccc2OCc2c(C)noc2C)c(C)c1`, 3.48%.
Under `Cc1ccc2cc(C3CC(c4ccco4)=NN3S(C)(=O)=O)c(Cl)nc2c1` (centres unmarked) stands -15%.
Under `CCN(CC)C(=O)/C(=C/c1ccc2c(c1)OCO2)NC(=O)c1ccc(Br)cc1` stands -70.5%.
Turning to `Cc1c(Cl)cccc1NC(=S)N(CCCN1CCOCC1)Cc1cccs1`, the “hERG current change (%, negative = inhibition) at 10uM” value was -26.5%.
For `c1ccc2cc(CCCc3cc4ccccc4cn3)ncc2c1`, the “hERG current change (%, negative = inhibition) at 10uM” value is given as -22.6%.
Under `O=C(Cn1cncn1)NCc1cccc2ccccc12` stands 0.581%.
Under `CN(C)S(=O)(=O)N1CCC(C(=O)O)(c2ccccc2)CC1` stands 18.7%; under `COc1ccc(/C=C2\SC(=O)N(CCNC(=O)Cn3cnnn3)C2=O)cc1`, -31.7%; under `O=C(CCS(=O)(=O)c1ccccc1)Nc1cccc(-c2nc3ccccc3s2)c1`, 5.96%.
With `CCOC(=O)c1c(N)n(-c2ccc(N)cc2)c2nc3ccccc3nc12`, the “hERG current change (%, negative = inhibition) at 10uM” value was -39%.
`O=C(O)C(=O)O.c1ccc(COc2ccc(OCCN3CCCCC3)cc2)cc1`: the “hERG current change (%, negative = inhibition) at 10uM” value was -70.2%.
For `CCCCCOC(=O)C1=C(C)NC(=O)NC1c1ccc(OC)cc1` (centres unmarked), the “hERG current change (%, negative = inhibition) at 10uM” value worked out at 5.95%.
In the case of `[O-]c1n[n+](-c2ccc(Cl)cc2Cl)cc2ccccc12`, the “hERG current change (%, negative = inhibition) at 10uM” value is listed as -2.19%.
`CN(C(=O)c1cc(COc2ccc(F)c(F)c2)on1)C1CCOC1` (centres unmarked): the “hERG current change (%, negative = inhibition) at 10uM” value is reported as -13.1%.
Under `COc1ccc(Cc2noc(CN(C)CCN3CCc4ccccc4C3)n2)cc1OC` stands -35%; under `c1ccc(CSCc2cn3ccsc3n2)cc1`, -4.45%; under `CCOc1cc(S(=O)(=O)N(CC)CC)ccc1Cl`, -0.543%.
Regarding `O=c1[nH]c(CSc2nc(-c3ccc(F)cc3)cs2)nc2ccccc12`, the “hERG current change (%, negative = inhibition) at 10uM” value was determined as 4.73%.
`O=C(CN1CCCC1)Nc1ccc(F)c(Cl)c1.O=C(O)C(=O)O`: the “hERG current change (%, negative = inhibition) at 10uM” value turned out to be 11.5%.
Then `CSc1nc(-c2ccco2)nn1S(C)(=O)=O`, with 16.2%.
For `CC(=O)Nc1ccc(N2CCOCC2)c(C(=O)Nc2cccc(C)c2)c1`, the “hERG current change (%, negative = inhibition) at 10uM” value was -25.8%.
`COc1ccccc1NS(=O)(=O)c1cc(NC(=O)Nc2ccccc2)ccc1N1CCCCC1`: the “hERG current change (%, negative = inhibition) at 10uM” value is reported as -33.9%.
Take `CS(=O)(=O)N1CCN(c2ccccc2NC(=O)c2ccc(-c3ccc(Cl)cc3Cl)o2)CC1`: the “hERG current change (%, negative = inhibition) at 10uM” value is given as -4.2%.
Under `COc1ccc(OC)c(S(=O)(=O)Oc2ccc(N)c3ccccc23)c1` stands 7.83%; under `Cc1c(C(C)(C)C)sc(=NC(=O)c2ccccc2O)n1C`, 17.1%.
For the compound `COc1ccc(-c2nnc(NC(=O)CS(=O)(=O)c3ccc(Cl)cc3)o2)c(OC)c1`, the “hERG current change (%, negative = inhibition) at 10uM” value was 19.1%.
For `Cc1cc(OCC(C)C)ccc1/C(O)=C1/C(=O)C(=O)N(Cc2cccnc2)C1c1ccncc1` (centres unmarked), the “hERG current change (%, negative = inhibition) at 10uM” value stood at 12.2%.
Regarding `COC(=O)CCC(=O)Nc1cccc2c(NC(=O)CCC(=O)OC)cccc12`, the “hERG current change (%, negative = inhibition) at 10uM” value is 25.9%.
Under `CC1=NN(c2ccccc2)C(=O)C1C(=O)c1ccccc1` (centres unmarked) stands 4.95%.
Take `Cc1ccc(C(=O)NC2CCCCC2)cc1`: the “hERG current change (%, negative = inhibition) at 10uM” value is 2.02%.
Under `CCOC(=O)CSc1nc(C)c(C(C)=O)cc1C(N)=O` stands 37.9%; under `CCCC(C(=O)NCCc1ccc(S(N)(=O)=O)cc1)c1ccccc1` (centres unmarked), 6.6%; under `O=C1[C@H]2[C@@H](c3ccc(F)cc3)N3C(=O)N(c4cccc(F)c4)C(=O)[C@@]3(Cc3ccc(Cl)cc3)[C@H]2C(=O)N1C1CCCCC1`, 7.12%.
